The whole screen tested about 210,000 compounds, of which about 730 (0.35%) were called active. Inconclusive results, whose numbers are uncertain, are shown with a selection of clear calls. Calls come from the whole dose curve; as a rule, active = well fitted inhibition curve with a large enough effect; inconclusive = small, poorly fitted or top-dose-only effect; inactive = no such curve, though single readings can be large or run the other way. A potency beside an inconclusive call is a rough fit, not a confirmed value.
Assay: qHTS Assay for Identifying the Cell-Membrane Permeable IMPase Inhibitors: Potentiation with Lithium; note: nearly all actives have a fitted effect of over 50% in size
Conditions: CHO-M1 cells, IP1 TR-FRET (IP-One), carbachol + lithium; series mostly up to 59.4 µM
Text: NIH Chemical Genomics Center [NCGC]
NIH Molecular Libraries Probe Production centers Network [MLPCN]
Assay Submitter (PI): Wei Zheng
Lithium has been widely used for the treatment of bipolar disorder. But lithium has a narrow therapeutic index and it can cause side effects such as thirst, weight gain, tremor, polyuria and memory problems. Although the mechanism for lithium action in treatment of bipolar disorder is still not fully understood, inhibition of inositol monophosphatase (IMPase) and the subsequent depletion of the inositol pool in living cells have been implicated as the primary therapeutic benefit of lithium therapy. Therefore, a selective IMPase inhibitor with reduced side effects might be a good drug candidate to replace lithium for the treatment of bipolar disorder. Several IMPase inhibitors have been discovered previously. However, they are not suitable for therapeutic use because of their poor cell membrane penetrability or oral bioavailability; the development of new cell-permeable IMPase inhibitors is needed.
IMPase catalyzes the hydrolysis of inositol-1-phosphate (IP1) to release free inositol. Binding of an agonist to a Gq coupled GPCR results in the activation of PLC, which hydrolyzes the PIP2 to form inositol-1,4,5-trisphosphate (IP3) and diacyl glycerol (DAG). While DAG activates protein kinase C (PKC), IP3 triggers the elevation of intracellular free Ca2+. The IP3 is very rapidly inactivated by hydrolysis to IP2, IP1 and then inositol by a series of enzymes including IMPase. Free inositols are used for synthesis of PI and thus start another inositol cycle.
To identify new cell-permeable IMPase inhibitors, we developed a cell-based IMPase assay in which the cytosolic IP1 is measured by a time-resolved fluorescence resonance energy transfer (TR-FRET) assay. In this assay, an IP1 specific antibody is used to detect the labeled IP1 tracer. When the cell lysate contains the elevated IP1 due to the inhibition of IMPase, the TR-FRET between the labeled antibody and IP1 tracer is disrupted resulting in a reduction in the total signal. Since the TR-FRET is used, this cell-based assay is a homogenous assay without cell wash and medium change that is suitable for assay miniaturization and HTS. In this particular assay, a small amount of lithium is added to potentiate the response of weak activators.
NCGC Assay Protocol Summary:
A Chinese hamster ovary (CHO) cell line stably expressing the M1 receptor (CHO-M1) was obtained from ATCC and maintained in F-12 Kaighn's media (Invitrogen, Carlsbad, CA) supplemented with 10 % FBS, 100 units/ml penicillin, 100 ug/ml streptomycin and 250 ug/ml geneticin at 37C, 5% CO2 in a humidified atmosphere. Before the assay, aliquots of cells were frozen and stored at -135C. The assay was performed in 1536-well format. Data are reported for both the ratio of the two emission wavelengths, and also for the component 'donor' channel, Em2=620. […] AC50 values were determined from concentration-response data modeled with the standard Hill equation.
(1) Frozen CHO-M1 cells were thaw, washed once with fresh media and resuspended in F12K media containing 10% FBS, 100 units/ml penicillin and 100 ug/ml streptomycin. Cells were plated at 4ul/well (2000 cells) in white, tissue culture treated 1536-well plates, and then cultured at 37C, 5 % CO2 for 16 to 30 hours.
(2) Add 23 nl/well of compound in DMSO solution. The final titration for each compound was between 0.6 nM and 46 uM.
(4) Incubation at 37C, 5 % CO2 for 30 min.
(5) Add 1 ul/well of d2-conjugated IP1 (d2-IP1) and 1 ul/well of Eu+ cryptate conjugated anti-IP1 antibody (Eu+-Ab) prepared in the cell lysis buffer, both from the IP-One kit (Cisbio, MA).
(6) Incubate at room temperature for 10 minutes.
(7) Detect the assay plate (Ex = 320, Em1 =665 and Em2 620) in a ViewLux plate reader.
Potency is the fitted concentration of half-maximal effect.

SMILES | Potency
O=C(O)CC(NC(=O)c1sc2ccccc2c1Cl)c1ccc(OC2CCCC2)cc1 (stereo not given) | inconclusive: 10 µM [inhibitor, partial curve]
COc1ccc2c(c1)O[C@@H](c1ccc3c(c1)OCO3)[C@H](OC(=O)N[C@H]1CCCc3ccccc31)C2=O | inactive
COc1nc(OCC#N)nc(N(C)C)n1 | inconclusive: 11.2 µM [inhibitor, partial curve]
O=c1c2c(-c3cccs3)csc2[nH]c(=S)n1-c1ccccc1 | active: 10 µM
CCSc1nc2ccccc2n1C(=O)/C=C\c1ccc(OC)c(OC)c1 | inactive
COC(=O)c1sccc1NC(=O)c1ccc(OC)cc1 | inconclusive: 15.8 µM [inhibitor, single point]
Cc1cc(NC(=O)CSc2ncnc3ccccc23)no1 | inconclusive: 8.91 µM [inhibitor, partial curve, poor fit]
Cc1c(N2C(=O)C(=O)/C(=C(/O)c3ccc(Br)cc3)C2c2cccnc2)c(=O)n(-c2ccccc2)n1C (stereo not given) | active: 8.91 µM
COc1ccc(CC(=O)Nc2ccc(-c3noc(-c4cccc(OC)c4)n3)cc2)cc1 | inconclusive: 12.6 µM [inhibitor, partial curve]
CC(=O)c1sc(NC(=O)C(C)C)nc1C | active: 11.2 µM
O=C(O)C12CC3CC(C1)CC(n1ncc(NCc4ccccc4)c(Cl)c1=O)(C3)C2 | inactive
N#Cc1nc(-c2ccccc2F)oc1NCc1ccccc1 | inconclusive: 8.91 µM [inhibitor, partial curve]
CCc1cc2cc(C(=O)Nc3ccccc3F)sc2s1 | inconclusive: 14.1 µM [inhibitor, single point]
Cn1nnnc1SCC(=O)C(C)(C)C | inactive
Cc1ccc(C(=O)C2=C(O)C(=O)N(Cc3ccccc3)C2c2cccnc2)o1 (stereo not given) | active: 10 µM
O=C(Nc1cc2ccccc2oc1=O)C1CCCCC1 | inconclusive: 17.8 µM [inhibitor, single point]
Cc1ccc2nc(SCC(=O)NCc3ccco3)c(C#N)cc2c1 | inconclusive: 28.2 µM [inhibitor, single point]
COc1cc(C)c(Br)cc1S(=O)(=O)NCc1ccncc1 | inactive
CCOC(=O)c1cc(NC(=O)c2ccccc2)c(=O)n2c1oc1ccccc12 | inconclusive: 11.2 µM [inhibitor, single point]
O=C(Nc1ccncc1)c1cn(-c2ccccc2)nc1-c1cccs1 | inconclusive: 28.2 µM [inhibitor, single point]
Clc1ccc(Cl)c(-c2ccc(/C=N/c3ncn[nH]3)o2)c1 | inconclusive: 11.2 µM [inhibitor, partial curve]
NC(=O)c1c(NC(=O)CSc2nnc(-c3ccco3)n2-c2ccccc2)sc2c1CCC2 | inactive
CCN(CC)CCCN1C(=O)C(O)=C(C(=O)c2cc3ccccc3o2)C1c1ccccn1 (stereo not given) | active: 12.6 µM
COc1ccc(Cl)cc1C(=O)Nc1nc2ccc(S(C)(=O)=O)cc2s1 | active: 12.6 µM
COC(=O)[C@H](CCSC)NC(=O)N1CCN(c2cccc(C(F)(F)F)c2)CC1 | inactive

SMILES | Potency
COc1ccc(C(=O)Nc2ccc3oc(-c4cccc(F)c4)nc3c2)cc1OC | inconclusive: 7.94 µM [inhibitor, partial curve]
Cc1cccc(CCNC(=O)c2cc(=O)[nH]c3ccc(Br)cc23)c1 | inconclusive: 28.2 µM [inhibitor, single point]
COc1ccc2[nH]cc(CCO)c2c1 | inactive
Cc1ccc(C(=O)C2=C(O)C(=O)N(CCCN3CCOCC3)C23C(=O)N(C)c2ccccc23)o1 (stereo not given) | inconclusive: 10 µM [inhibitor, partial curve]
Cc1ccc(S(=O)(=O)c2cc3ccccc3oc2=O)cc1 | inconclusive: 10 µM [inhibitor, single point]
Cc1nnc(SCC(=O)Nc2nsc(-c3ccc(Cl)cc3)n2)s1 | inconclusive: 7.94 µM [inhibitor, partial curve]
CCOC(=O)c1c(NC(=O)COC(=O)c2ccc(O)cc2)sc(C(=O)N(C)C)c1C | inconclusive: 25.1 µM [inhibitor, single point]
C=CCN(CC=C)c1cnn(-c2nc3ccccc3[nH]2)c(=O)c1Cl | inconclusive: 11.2 µM [inhibitor, single point]
Cc1ccc(C(=O)N2CCN(c3ccccc3)CC2)cc1C | inactive
Cc1sc2ncnc(SCC#N)c2c1C | inconclusive: 28.2 µM [inhibitor, single point]
FC(F)(F)C1=CC(c2ccccc2)=NCCN1 | inconclusive: 31.6 µM [inhibitor, partial curve, poor fit]
CNCC[C@H](Oc1ccccc1OC)c1ccccc1 | inactive
CNc1nc(-c2ccccc2)nc(-c2ccc(OC)cc2)c1C#N | inconclusive: 15.8 µM [inhibitor, single point]
Cc1cnc(NC(=O)c2cc3c(C)nn(Cc4ccccc4Cl)c3s2)s1 | inconclusive: 28.2 µM [inhibitor, single point]
COc1ccc(C(=O)Nc2cc(Cl)ccc2OC(=O)c2ccc(OC)cc2)cc1 | inactive
CS(=O)(=O)c1sc2nc(-c3cccs3)cc(-c3ccccc3)c2c1N | inconclusive: 10 µM [inhibitor, partial curve]
COc1cccc(Cn2c(=O)c(-c3ccccc3)nc3cnc(N(C)C)nc32)c1 | inconclusive: 10 µM [inhibitor, single point]
CCSc1nnc(C)c2ccccc12 | inconclusive: 10 µM [inhibitor, partial curve]
CC(=O)NS(=O)(=O)c1ccc(NC(=O)c2ccccc2F)cc1 | inactive
CCc1nnc(NC(=O)CSc2nc(C)cc(C)c2C#N)s1 | inconclusive: 28.2 µM [inhibitor, single point]
CCOC(=O)c1c(-n2cccc2)sc2c1CCCC2=O | inconclusive: 14.1 µM [inhibitor, single point]
CNCc1ccccc1OCc1ccccc1F | inactive
Cn1c(CN2CCN(c3ccc(Cl)cc3)CC2)nc2ccccc21 | inconclusive: 31.6 µM [inhibitor, single point]
Cc1csc(NC(=O)c2sc3nc(-c4cccs4)ccc3c2N)n1 | inconclusive: 12.6 µM [inhibitor, single point]
O=C(c1ccccc1)N1CCCCCC1 | inactive

SMILES | Potency
Nc1nc(=S)[nH]c2c1C1(CCCC1)Cc1ccccc1-2 | inconclusive: 11.2 µM [inhibitor, partial curve]
Cc1c(C(=O)OC2CCCCC2)[nH]c2c1C(=O)CC(C)(C)C2 | inconclusive: 28.2 µM [inhibitor, single point]
CCc1c(C)sc(NC(=O)CSc2nc3c(c(C(F)(F)F)n2)CCc2ccccc2-3)c1C#N | inconclusive: 11.2 µM [inhibitor, single point]
CC1(C)CC(=O)c2cc(OCC(=O)O)ccc2O1 | inconclusive: 12.6 µM [inhibitor, partial curve]
CCOCC(=O)Nc1c(C(=O)Nc2ccc(OC)cc2OC)oc2ccccc12 | inconclusive: 28.2 µM [inhibitor, single point]
COc1ccc2nc(NC(=O)Nc3ccccc3)sc2c1 | inactive
CCOC(=O)C1=C(C)NC2=C(C(=O)CCC2)C1c1ccc(N(C)C)cc1 (stereo not given) | inactive
O=C(Nc1c(F)cc(F)cc1Br)c1ccco1 | inactive
COc1ccc(C2=NN(c3ccccc3)C(c3cccs3)C2)cc1 (stereo not given) | inconclusive: 8.91 µM [inhibitor, partial curve]
CCOC(=O)CCCSc1nc(-c2ccc3c(c2)OCO3)cc(C(F)(F)F)c1C#N | inconclusive: 25.1 µM [inhibitor, single point]
COc1ccc(CC(=O)NNC(=S)Nc2ccc(Br)cc2)cc1 | inactive
Cn1ncc(Br)c1C(=O)Nc1ccc(Cl)cn1 | inconclusive: 28.2 µM [inhibitor, single point]
Cc1nc(SCC(=O)NC(=O)NCCC(C)C)c2c(-c3cccs3)csc2n1 | inconclusive: 25.1 µM [inhibitor, single point]
CC(=O)Nc1nc2n(n1)C(c1ccc(F)cc1)C=C(c1ccccc1)N2 (stereo not given) | inconclusive: 10 µM [inhibitor, partial curve]
Cc1noc(/C=C/N(C)C)c1S(=O)(=O)NC1CCCCC1 | inactive
COc1ccc(C(=O)/C=C/c2ccccc2)cc1 | inactive
CCc1nnc(NS(=O)(=O)c2ccc(NC(=S)NC(=O)/C=C/c3ccc(OC)cc3)cc2)s1 | inconclusive: 28.2 µM [inhibitor, single point]
Cc1ccccc1-c1n[nH]c(=S)n1/N=C/c1c(C)nn(-c2ccccc2)c1C | inactive
CCOC(=O)C1CCCN(c2c(N3CCN(C)CC3)c(=O)c2=O)C1 (stereo not given) | inconclusive: 28.2 µM [inhibitor, single point]
COc1ccc(-c2nc3c(-c4ccc(F)cc4)cnn3cc2C)cc1F | inactive
Cc1ccccc1Oc1nc2ccccc2n2cnnc12 | inconclusive: 3.16 µM [inhibitor, full curve]
O=C(O)c1ccccc1NC(=S)NC(=O)c1sc2ccccc2c1Cl | inconclusive: 22.4 µM [inhibitor, single point]
Cc1sc2ncnc(OCC(=O)Nc3ccc4c(c3)OCCO4)c2c1C | inactive
COc1ccccc1N1CC(C(=O)OC(C)C(=O)N2CCCc3ccccc32)CC1=O (stereo not given) | inactive
COc1ccc(N2C(=O)c3ccccc3NC2c2ccc(OC)c(CSc3ccccn3)c2)cc1 (stereo not given) | inconclusive: 28.2 µM [inhibitor, single point]

— PubChem BioAssay AID1457 (National Center for Advancing Translational Sciences (NCATS), 2008)
